# Measured values as given in PubChem BioAssay AID488969 (Vanderbilt High Throughput Screening Facility, 2010).
# Whole data set: some 110,000 compounds, median “z-score” near -0.1, cut for the highest 2% near 2. The list shows a part of the results. Activity calls are given as the source filed them.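 How the source made its calls: active means z-score in the third read window above 3 or below -3; inactive means the rest.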
# Target: Metabotropic glutamate receptor 8 (Rattus norvegicus) (UniProt P70579)
# Chain of UniProt P70579 (P70579 whole entry, looked up): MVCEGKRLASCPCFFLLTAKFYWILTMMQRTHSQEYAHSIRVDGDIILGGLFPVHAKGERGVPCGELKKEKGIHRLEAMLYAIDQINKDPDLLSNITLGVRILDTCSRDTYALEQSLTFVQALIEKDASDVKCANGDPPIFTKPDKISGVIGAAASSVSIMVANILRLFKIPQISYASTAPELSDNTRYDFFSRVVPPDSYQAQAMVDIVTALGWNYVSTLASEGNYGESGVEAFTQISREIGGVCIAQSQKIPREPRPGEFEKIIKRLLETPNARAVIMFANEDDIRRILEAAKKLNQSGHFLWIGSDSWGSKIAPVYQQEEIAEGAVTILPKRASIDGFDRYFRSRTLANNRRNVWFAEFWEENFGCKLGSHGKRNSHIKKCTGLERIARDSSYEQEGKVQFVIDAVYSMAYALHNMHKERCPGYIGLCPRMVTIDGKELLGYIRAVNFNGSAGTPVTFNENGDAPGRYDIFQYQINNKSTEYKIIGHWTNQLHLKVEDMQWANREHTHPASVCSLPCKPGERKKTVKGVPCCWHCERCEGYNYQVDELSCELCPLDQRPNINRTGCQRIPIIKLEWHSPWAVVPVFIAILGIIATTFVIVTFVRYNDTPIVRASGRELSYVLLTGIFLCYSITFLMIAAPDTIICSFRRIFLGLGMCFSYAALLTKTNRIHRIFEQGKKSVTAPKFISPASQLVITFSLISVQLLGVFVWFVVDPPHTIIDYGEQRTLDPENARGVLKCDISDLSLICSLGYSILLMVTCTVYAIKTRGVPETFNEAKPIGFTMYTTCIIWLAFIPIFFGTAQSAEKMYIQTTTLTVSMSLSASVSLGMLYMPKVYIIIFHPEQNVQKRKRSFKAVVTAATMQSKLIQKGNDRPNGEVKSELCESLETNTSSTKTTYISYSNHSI
# Assay: mGluR8 Gi/Go-coupled signaling modulation – cell-based, rat, thallium flux, HTS, primary screen (AID 488969)
# Conditions: HEK293 rat mGluR8, GIRK (G protein-gated inwardly rectifying potassium channel) thallium flux, FluoZin2; at 10 µM; stronger effect = higher value; submaximal glutamate (EC20) added with thallium
row,Structure (SMILES),z-score
1,COC(=O)[C@H](C)NC(=O)Nc1ccc(OC)c(OC)c1,0.367
2,CCCCN(C)C(=O)c1cn(CC)c2ccc(S(=O)(=O)N(C)C)cc2c1=O,-0.332
3,Cc1ccc(C(=O)NC(=S)Nc2ccccc2C(F)(F)F)cc1,active: 6.32
4,CC(C)Oc1ccc(NC(=O)c2ccncc2)cc1,0.155
5,CCCN(CC(=O)Nc1ccc(F)c(F)c1F)CC(=O)Nc1c(Cl)cccc1Cl,-0.221
6,COc1cnc(-c2ccccc2)nc1Oc1cccc(C)c1,-0.0595
7,COc1ccc(C(=O)Nc2cc(-c3nn4c(C)nnc4s3)ccc2C)cc1,-0.731
8,O=C(Cc1cccs1)NNC(=O)c1ccc(F)cc1,-0.132
9,CN(C)S(=O)(=O)c1ccc(N2CCCC2)c(C(=O)NCc2ccc(Cl)cc2)c1,-0.327
10,COC(=O)NC(NC(=S)Nc1ccc([N+](=O)[O-])cc1)C(Cl)(Cl)Cl (centres undefined),0.482
11,O=c1c2c(ncn1CCO)nc1n2CCC1,-0.204
12,CC1Cc2nc(SCC(=O)Nc3ccc(F)cc3F)n(C)c(=O)c2S1 (centres undefined),-0.504
13,Cc1ccc(S(=O)(=O)Nc2ccncc2)c(C)c1N(C)S(=O)(=O)c1ccc(Cl)cc1,-0.067
14,CC(=O)N1CCN(S(=O)(=O)c2ccc(S(=O)(=O)NC3CC3)cc2)CC1,2.05
15,COc1ccc(CNS(=O)(=O)c2ccc3oc(C(=O)O)c(C)c3c2)cc1,-0.327
16,Cc1ccc(C(C)C)c(OC(=O)/C=C/c2ccccc2)c1,-0.343
17,COc1cc(O)c(NC(C)=O)c2nonc12,0.0415
18,Cc1ccc(C)c(C(=O)COC(=O)c2cc(Cl)nc3ccccc23)c1,-0.403
19,CN=c1scc(C)n1/N=C/c1ccc(O)c(O)c1O,-0.648
20,CC(=O)C1=C(O)C(=O)N(CCC(=O)O)C1c1ccc(Cl)cc1Cl (centres undefined),-0.223
21,O=S(=O)(NCCc1ccccc1)c1cccc(S(=O)(=O)N2CCOCC2)c1,0.51
22,CCOc1ccc2c(c1)c(N=Nc1cccc(C(=O)O)c1)c(O)n2C,-0.0674
23,CCO/C(C)=C1\C(=O)Nc2ccccc21,0.866
24,CCCCn1c(SCc2ccccn2)nc2c1c(=O)n(C)c(=O)n2C,-0.565
25,Cc1csc(SCCN2C(=O)c3ccccc3C2=O)n1,0.307

row,Structure (SMILES),z-score
1,O=C(Nc1ccccc1)c1cccc(C(F)(F)F)c1,-0.053
2,Cc1cc(/C=C(\C#N)C(=O)NC2CCCCCC2)c(C)n1C,-0.213
3,CC(=O)c1ccc(N2CCN(C(=O)COc3ccccc3F)CC2)c(F)c1,-0.0743
4,C=CCN1CCN(c2ccncc2S(=O)(=O)N2CCOCC2)CC1,-0.213
5,CC(=O)NC(O)C(=O)c1ccccc1 (centres undefined),0.403
6,CCOC(=O)N1CCN(CC(=O)Nc2cccc(Br)c2)CC1,0.0335
7,Cc1cccc(NC(=O)c2ccccc2OCC(=O)N2CCOCC2)c1C,-0.0706
8,NC(=O)CCCc1nc(-c2ccccc2Cl)no1,-0.0666
9,O=C(O)Cn1c(SCc2ccccc2)nc2ccccc21,0.00596
10,COc1ccc(/C=N/O)cc1COc1ccc(NC(C)=O)cc1,0.551
11,O=C(Cc1c[nH]c2ccccc12)NNC(=O)c1ccccc1,0.804
12,Cc1cccc(NC(=S)NCCCN2CCOCC2)c1,-0.387
13,CSc1ccccc1NC(=O)CSCc1ccc(C)cc1,-0.385
14,COc1ccc(N=Cc2cc3c(cc2O)OC(N)=C(C#N)C3c2ccccc2)cc1 (centres undefined),-1.18
15,CCN(C(C)=O)N(CC)c1nc(Cl)nc(NC(C)C)n1,-0.158
16,CCCC(=O)Nc1ccc(C(=O)N/N=C/c2cccnc2)cc1,-0.18
17,Cc1onc(-c2ccccc2)c1C(=O)NCCc1ccc(Cl)cc1,0.00877
18,COc1ccc(CNc2nc3nc(C)c(Cl)c(=O)n3[nH]2)cc1OC,0.803
19,Cc1sc2nc(CN(C(=O)NC3CCCCC3)C3CCCC3)[nH]c(=O)c2c1C,-0.352
20,O=C(CN(CCO)c1ccccc1)NC12CC3CC(CC(C3)C1)C2,0.0711
21,Cc1nc2ccccc2c(=O)n1/N=C/c1ccc(O)cc1,0.481
22,O=C(CSc1nc2c(sc3ccccc32)c(=O)n1CCCN1CCCC1)NCC1CCCO1 (centres undefined),0.527
23,O=C1CC(c2ccccc2)CC(O)=C1C=Nc1ccc(Cl)cc1 (centres undefined),-0.141
24,S=C(Nc1ccccc1)N1CCn2c1nc1ccccc12,-0.0841
25,COc1ccc(/C=N/n2c(C)nnc2C)c(OC)c1OC,-0.332

row,Structure (SMILES),z-score
1,CCOC(=O)N1CCN(Cc2nc3c(c(=O)n(C)c(=O)n3C)n2Cc2cccc(C)c2)CC1,0.299
2,c1ccc(Cn2c(CN3CCCC3)nc3ccccc32)cc1,-0.186
3,CCOC(=O)N1CCN(C(=O)CSc2nnc(CNC(=O)c3c(F)cccc3Cl)o2)CC1,-0.28
4,COc1cc2c(cc1OC)C(C(=O)O)C(c1ccc(C)o1)N(C)C2=O (centres undefined),-0.00596
5,Cc1ccc(NC(=O)c2ccc(S(=O)(=O)NCC3CCCO3)cc2)cc1 (centres undefined),-0.255
6,CCCn1c(=O)c2ccccc2n2c(SCC(=O)c3ccccc3)nnc12,-2.52
7,Cc1ccc(NC(=S)N(CCN2CCCCC2)Cc2ccco2)cc1,0.265
8,Cc1ccc(C)c(NC(=O)CSc2ccc(-c3cccs3)nn2)c1,0.199
9,Cc1ccccc1NC(=S)NCC(c1cccnc1)N(C)C (centres undefined),-0.204
10,O=C(Cn1c(=O)sc2ccccc21)NCc1ccco1,-0.176
11,NC1=NC2(CCCCC2)N=C(Nc2ccc(F)cc2F)N1,-0.173
12,COc1ccc(SCC(=O)c2cc(C)c(OC(=S)N(C)C)c(C)c2)cc1,0.125
13,CCOC(=O)/C(C(N)=NCc1ccco1)=C(/O)c1ccccc1,-0.494
14,CCC(CC)C(=O)Nc1nc(-c2ccc3c(c2)CCN3C(=O)C2CC2)c(C)s1,0.662
15,C=CCOc1ccc(C2NC(=S)NC(C)=C2C(=O)c2ccccc2)cc1OC (centres undefined),-0.483
16,CCC1CCc2c(sc(NC(=O)C3CC=CCC3C(=O)O)c2C#N)C1 (centres undefined),-0.313
17,Cc1cccc(C)c1-n1nnnc1C1(Nc2ccccc2)CCCCC1,-0.148
18,Brc1ccc2ncnc(Nc3cccc4ccccc34)c2c1,-0.494
19,Cc1n[nH]c(=O)nc1NC1CCCCC1,-0.101
20,CC(C)Nc1nc(SCC(=O)Nc2ccccc2)nc(N2CCOCC2)n1,-0.25
21,O=c1cc(-c2ccccc2)c2ccc(O)c(CN3CCCCC3)c2o1,-0.562
22,Cc1ccccc1NC(=O)c1ccc(-n2cncn2)nc1,-0.0846
23,CSc1nc(C)c2c(n1)N(c1ccc(C(F)(F)F)cc1)CC2,0.0153
24,COc1cc(/C=C2\C(=O)N(c3ccccc3)N=C2C)ccc1Oc1ccc([N+](=O)[O-])cc1[N+](=O)[O-],-0.164
